Measured values: PubChem BioAssay AID504832 (National Center for Advancing Translational Sciences (NCATS), 2011)
Out of some 310,000 compounds screened, about 18,000 (5.8%) were called active. The shares of active, inactive and inconclusive entries below differ from those in the screen. The call rests on the fitted dose curve; in most records, active means well fitted inhibition curve with a large enough effect; inconclusive means small, poorly fitted or top-dose-only effect, or another doubt; inactive means no such curve, though single readings can be large or run the other way. Potencies of inconclusive entries are left out as doubtful fits.

Test: Primary qHTS for delayed death inhibitors of the malarial parasite plastid, 48 hour incubation
Settings: P. falciparum luciferase growth in erythrocytes; series mostly up to 28.7 µM; activity change, negative = inhibition: at the top concentration
Method in brief: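 Luciferase-expressing parasites in RBCs, 2% Hct / 0.1% parasitemia final; RPMI 1640 + 0.5% Albumax; 37 C, 5% CO2, one generation; luminescence read-out, lower signal = inhibition.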
On the % scale 0 is the no-effect control and ±100 the full control effect; potency means the concentration at half of the fitted maximal effect; tags describe the fitted curve by direction and shape.

SMILES | activity change, negative = inhibition | Potency
Cc1onc(-c2ccccc2Cl)c1C(=O)N1CCN(Cc2ccc3c(c2)OCO3)CC1 | inactive: -1.83% | 
O=C(Cn1nnc2ccccc21)Nc1ccccc1[N+](=O)[O-] | inactive: -14.8% | 
CCOC(=O)c1c(NC(=O)CSc2nc3ccccc3c(=O)n2-c2ccccc2)sc(C(C)=O)c1C |  | active: 0.208 µM
O=C(CSC1=NCCN1)NC12CC3CC(CC(C3)C1)C2 |  | inconclusive [inhibitor, single point]
COc1ccc(S(=O)(=O)N2CCCCCC2)cc1C(=O)N1CCCC(C(F)(F)F)C1 (stereo unspecified) |  | inconclusive [inhibitor, single point]
O=C(O)CC(c1ccc(F)cc1F)N1Cc2ccccc2C1=O (stereo unspecified) |  | inconclusive [inhibitor, partial curve, poor fit]
CC1CC(=S)Nc2ccccc2S1 (stereo unspecified) |  | inconclusive [inhibitor, partial curve, poor fit]
COc1cc(Cl)c(C)cc1NC(=O)c1ccc(NS(=O)(=O)c2ccc(F)c(F)c2)cc1 |  | inconclusive [inhibitor, partial curve]
CN(C(=O)c1ccc2c(c1)SC1=NS(=O)(=O)CCN12)C(c1ccccc1)c1ccccc1 |  | active: 11.7 µM
Cc1ccccc1NC(=O)CSc1nc(COc2ccccc2)nc2ccccc12 |  | inconclusive [inhibitor, single point]
Cc1nn(-c2ccccc2)c(N2CCCC2)c1/C=N/NC(=O)c1cccc(S(=O)(=O)Nc2ccc(Cl)cc2)c1 | inactive: -20.1% | 
CC(Cc1cccnc1)NC(=O)c1cc(COc2ccc(F)cc2Cl)on1 (stereo unspecified) | inactive: -7.09% | 
COC(=O)CCSc1cc([N+](=O)[O-])cc2c1c(C1OCCS1)nn2-c1ccccc1 (stereo unspecified) |  | inconclusive [inhibitor, single point]
CCCCn1c(N)c(N(CC(C)C)C(=O)C2CCN(S(=O)(=O)c3ccc(C)cc3C)CC2)c(=O)[nH]c1=O |  | active: 13.1 µM
Cn1c(=O)c2cc(S(=O)(=O)NCCC(=O)NC3CCCCCCC3)ccc2n(C)c1=O |  | inconclusive [inhibitor, partial curve, poor fit]
O=C(CN(C(=O)c1csnn1)c1ccccc1F)NCc1ccccc1 | inactive: -11.2% | 
Cc1ccc(CN2C(=O)C(Cc3ccccc3)Nc3ncnc(N4CCCCC4)c32)cc1 (stereo unspecified) |  | active: 1.65 µM
CCc1nnc(NC(=O)C2Cc3ccccc3CN2S(=O)(=O)c2cccs2)s1 (stereo unspecified) |  | inconclusive [inhibitor, single point]
O=C(O)CSc1nc2ccccc2s1 |  | inactive
Cc1ccc(S(=O)(=O)NCC(=O)N(CC(=O)NC2CCCC2)c2ccc3c(c2)OCCO3)cc1 |  | inconclusive [inhibitor, partial curve]
CCN1CCN(Cc2cc(Br)cc(Br)c2O)CC1 |  | active: 1.65 µM
CC(c1ccccc1)n1c(SCC(=O)N2CC(=O)Nc3ccccc32)nc2ccccc2c1=O (stereo unspecified) |  | active: 13.1 µM
Cc1nc(-c2c(-c3ccc(O)cc3O)noc2C(F)(F)F)cs1 |  | inconclusive [inhibitor, single point]
CCn1c(=O)c([N+](=O)[O-])c(NC2CCS(=O)(=O)C2)c2ccccc21 (stereo unspecified) | inactive: 0.454% | 

SMILES | activity change, negative = inhibition | Potency
COc1ccc(OCC(=O)Nc2ccc(S(=O)(=O)N3CCCCC3)cc2)cc1 |  | inconclusive [inhibitor, partial curve]
O=C(O)CSc1nnc(-c2ccc(Cl)cc2Cl)n1-c1ccc(Cl)cc1 | inactive: 27% | 
CCCOC(=O)C1=C(C)NC2=C(C(=O)C(C(=O)OC)C(C)C2)C1c1ccc(N(C)C)cc1 (stereo unspecified) |  | inconclusive [inhibitor, partial curve, poor fit]
CCCC(=O)C1=C(O)C(C(=O)OC)C(C)(C)CC1=Nc1ccc(Br)cc1 (stereo unspecified) |  | inconclusive [inhibitor, partial curve]
Cc1nonc1CC(=O)N1CCc2c([nH]c3ccccc23)C1c1ccccc1F (stereo unspecified) | inactive: -2.43% | 
Cc1cc(C)cc(NC(=S)N(CCN2CCCCC2)Cc2ccco2)c1 |  | inconclusive [inhibitor, single point]
CC(OC(=O)Cc1c[nH]c2ccccc12)C(=O)Nc1ccc(S(N)(=O)=O)cc1 (stereo unspecified) | inactive: 2.51% | 
Cc1nc(N=C(N)N)nc2ccccc12 |  | inconclusive [inhibitor, full curve]
CC(=O)Nc1nc(NC(=O)/C=C/c2ccccc2)n(-c2ccccc2)n1 |  | inconclusive [inhibitor, single point]
COC(=O)C1(C(C[N+](=O)[O-])c2ccc(C)cc2)C(=O)NCC1c1ccco1 (stereo unspecified) | inactive: -2.51% | 
CC(NC(=S)Nc1ccccc1Cl)C(c1ccccc1)N1CCOCC1 (stereo unspecified) |  | inconclusive [inhibitor, single point]
Cc1nnc(SCC(=O)N2CCC(C(=O)Nc3nccs3)CC2)n1Cc1ccccc1 |  | inconclusive [inhibitor, partial curve]
Cc1cccc2cc(C(c3nnnn3C(C)(C)C)N(Cc3ccco3)CC3CCCO3)c(=O)[nH]c12 (stereo unspecified) |  | active: 11.7 µM
CC(C(=O)NC1(C#N)CCCCC1)N(C)CC(=O)Nc1ccc(Cl)c(Cl)c1 (stereo unspecified) |  | inconclusive [inhibitor, single point]
O=[N+]([O-])c1cc(S(=O)(=O)NCCc2ccccn2)ccc1Cl |  | inconclusive [inhibitor, single point]
Cc1cc(C)c2oc(C(=O)N3CCN(Cc4ccccc4)CC3)cc(=O)c2c1 |  | inconclusive [inhibitor, single point]
CCOC(=O)N1CCN(C(=O)C2CCN(c3nnc(-n4cccc4)s3)CC2)CC1 |  | inconclusive [inhibitor, single point]
CCCCCCNC(=O)CC(c1ccccc1)c1cc(Br)ccc1O (stereo unspecified) |  | active: 11.7 µM
O=C(CCc1nnc(CCCc2ccccc2)o1)NCCc1ccco1 | inactive: 20.8% | 
O=S(=O)(Nc1cccc2ccccc12)c1cccs1 |  | inconclusive [inhibitor, single point]
O=C(Nc1cccc(F)c1)c1ccc(CSc2ccccc2)o1 | inactive: 35.3% | 
COc1ccc(NC(=O)CC(C)C)c([N+](=O)[O-])c1 | inactive: 30.9% | 
COc1ccc2c(c1)C(=O)[C@H](O)[C@@H](c1ccc(OC)c(Br)c1)O2 |  | active: 3.7 µM
Cc1nc2nc(SCC(=O)c3ccc([N+](=O)[O-])cc3)[nH]c2cc1Br |  | inconclusive [inhibitor, single point]

SMILES | activity change, negative = inhibition | Potency
COc1cccc(NC(=O)N2CCC(NC(=O)c3ccco3)CC2)c1 | inactive: -4.12% | 
Cc1ccc(S(=O)(=O)N2CCN(c3nc(C)nc4sc5c(c34)CCC(C)C5)CC2)cc1 (stereo unspecified) |  | inconclusive [inhibitor, partial curve]
Cc1ccc(S(=O)(=O)NCCC(=O)Nc2ccc(Cl)cc2C(=O)c2ccccc2)cc1 |  | inconclusive [inhibitor, single point]
COc1ccc(CC(=O)O/N=C(\N)c2ccccn2)cc1 | inactive: 131% | 
Cc1ccc(S(=O)(=O)NCCN=Cc2ccc(N(C)C)cc2)cc1 | inactive: 3.34% | 
Cn1cccc1/C=N/NC(=O)c1cc2ccccc2cc1O |  | inconclusive [inhibitor, partial curve]
CCC(=O)NC(c1cccs1)c1cc([N+](=O)[O-])c2cccnc2c1O (stereo unspecified) |  | inconclusive [inhibitor, partial curve, poor fit]
COc1ccc(C2SCC(=O)N2c2ccc(C)cc2)cc1 (stereo unspecified) |  | inconclusive [inhibitor, full curve, poor fit]
Cc1cc(C)c2c(N)c(C(=O)C(C)(C)C)sc2n1 | inactive: -19.9% | 
Cc1cc(C)cc(N(C(=O)c2csnn2)C(C(=O)NC2CCCC2)c2cccnc2)c1 (stereo unspecified) |  | inconclusive [inhibitor, single point]
Clc1cccc(CN2CCSCC2)c1Cl | inactive: 0% | 
O=C(C[n+]1ccc2ccccc2c1)c1ccc(NC(=O)c2ccccc2)cc1 |  | active: 13.1 µM
Cc1noc(C)c1-c1nc(CS(=O)(=O)c2ccc(Cl)cc2)no1 | inactive: 53.9% | 
Cc1ccc(C(=O)NCCN2C3=NC[C@H](C(C)C)N3C[C@H]2Cc2ccc(O)cc2)cc1Br |  | active: 4.65 µM
COCCn1c(SCC(=O)Nc2ccc(NC(C)=O)cc2)nc2c([nH]c3ccccc32)c1=O |  | inconclusive [inhibitor, full curve, poor fit]
O=Cc1c(NCCN2CCOCC2)c2ccccc2[nH]c1=O |  | inconclusive [inhibitor, full curve, poor fit]
COc1cc(C2C3=C(Nc4nc(N)[nH]c(=O)c42)c2ccccc2C3=O)ccc1O (stereo unspecified) |  | inconclusive [inhibitor, single point]
COc1ccc(S(=O)(=O)N2CCOCC2)cc1NC(=O)Cc1sc(C)nc1-c1ccc(F)cc1 |  | inconclusive [inhibitor, single point]
COc1ccccc1N=Nc1ccc(O)c2ncccc12 |  | active: 2.94 µM
C=C(C)c1cccc(C(C)(C)NC(=O)NC2CC(C)(C)NC(C)(C)C2)c1 |  | inconclusive [inhibitor, partial curve]
Cc1ccc(NC2CCCN(C(=O)c3ccc4[nH]ccc4c3)C2)cc1C (stereo unspecified) |  | inconclusive [inhibitor, partial curve, poor fit]
Clc1ncnc2scc(-c3ccccc3)c12 |  | inconclusive [inhibitor, full curve]
CCCCCCSc1nnc2[nH]c(=O)cc(N)n12 |  | inconclusive [inhibitor, single point]
